Test results from the supplement of paper PMC10681739.
± gives the standard deviation of the averaged measurements. Whole data set: some 4,000 sequences, median “arbitrary fluorescence units” near 830, cut for the highest 2% near 6,500. The list lacks most of the strong results.

The sequences below were run against RUNX1 (UniProt Q01196) (assay: RUNX1 binding intensity (PBM fluorescence), RUNX1 alone (arbitrary fluorescence units); higher = stronger binding). Settings: RUNX1 concentration 2 nM; ETS1 concentration 0 nM.
Protocol: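 gcPBM on 36-bp genomic-derived probes (partner site mutated) containing one RUNX1 site and no ETS1 site. Recombinant human RUNX1 (2 nM) was incubated alone or with ETS1 (25 nM) and detected by anti-RUNX1 antibody fluorescence. Values are medians over 4 replicate spots (not normalised). The probes sit in constant array flanks that are not printed.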
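Note: Full-length recombinant human RUNX1 bound to double-stranded DNA microarray spots, detected with an Alexa488-labelled secondary antibody after the anti-RUNX1 primary, read as scanned spot fluorescence.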

UniProt Q01196, sequence (Q01196 whole entry): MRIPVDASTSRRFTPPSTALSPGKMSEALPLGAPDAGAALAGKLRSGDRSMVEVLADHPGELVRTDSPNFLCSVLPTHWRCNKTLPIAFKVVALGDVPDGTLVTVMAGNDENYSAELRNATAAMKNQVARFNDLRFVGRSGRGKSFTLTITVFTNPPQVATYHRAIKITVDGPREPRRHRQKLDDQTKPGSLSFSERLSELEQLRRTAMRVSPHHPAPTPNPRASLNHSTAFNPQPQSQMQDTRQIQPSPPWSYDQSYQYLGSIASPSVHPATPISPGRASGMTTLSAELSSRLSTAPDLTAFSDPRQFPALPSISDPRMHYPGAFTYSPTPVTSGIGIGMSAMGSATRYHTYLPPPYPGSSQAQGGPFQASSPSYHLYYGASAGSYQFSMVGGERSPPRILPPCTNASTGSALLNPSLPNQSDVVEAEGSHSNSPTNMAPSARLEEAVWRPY

Sequence | RUNX1 binding intensity
CAGATTCCCGTAAAGGGGGACATGTAGCCGCAAAAG | 829
GAGAAAGCAGCGCCGCAGCGCGCCTTCGGCCACGCC | 737
GCCTGTTTGTTCCCCCCCCGCGGCAACCGCTGCTCG | 1210
CCCGCCGCCACAAGGAGACGCCCGAGGACCTCCCTC | 926
GAAGAAGTCAAGAAATGCTGCCGCAGCAGCCAGCCC | 765
GTCTCGCACCGCGAACACTGAGCTGAACGGAGATGT | 710
TCCCCCGTTTGGTTTTCAGGCCCTCTTCATGGAGCT | 988
GGACCGAAAGTAGGTTTCTACCCGACCGCATTTTAC | 885
CTGAAAAACTGGAAGTGGGTGGTTTGAAACGTAAAT | 842
CTCGGCCTGCGGCGGGGTAGAGCGCCGGCAACGGCT | 741
AACAAACCTGATGGGGTTGCCACCCGCAATCTTGTC | 883
CCTGCACTTGGCCGCAGCCAGCTTGTTCCTCTCGCA | 1000
AGGAGCCCACAGCCCTGGGAGTGTTTACTGTTTGCC | 826
GCTCTGACCGCTCTGCCGCGCGCCTGAAGCAGCCTG | 822
CTCATAACCGCTAACTCAACCTCTAACATTTGCTGT | 3220
CTCTGGGAGGCCGCAGCTTTCCACCGAAAAGAGGGT | 829
ATCTTACCCCGGGAATGACAACAGTGCCGCAAACTG | 759
GGGGATGCGGGTCGGGAGGTAGTGCCGGGTGCGCGG | 722
GGAGCAGAGACCGCGATTACTCAACAGTAAAGAGAG | 776
GCGCTGCGGGGATTAGGAGGGCGCTTACGGTGGCGG | 725
CGCCCCGGCAACCGCCCACGTCCTGGGGCCAGGCCT | 928

Sequence | RUNX1 binding intensity
CAGGGACGTTCGAACTGGGCGGGGCCCACCGCAGTT | 672
TTGTTGTGGTTCTACGTCACGTGGTCCCGGGAGTTC | 1220
ACCCCGAAAGTGTGGGCGCGGCTGCGGTTTAACCCG | 7200
GCCGAGCCAGCGGTTTCGCATCTGCACTTTCGCCAC | 941
CAGTCAGACGGGAGCCCGGCTTCTGTGGTGCCTGCC | 696
CGAACGCCGGGCGTTCTGGGCACGTGACCGCCACCC | 787
CGGCCTGTGCGGGGAGTTTAGGGAGGTGGCAGGGTG | 828
CGCCGGTCCCATCTCCTTTCTGCGGGGTGAGCAGCA | 1030
ACCCCTGCGGGTCCTGTGCCTGGCGGGCTTCAGGCA | 692
AGAACTGTGGTATGCGCAAACCATTACAGGGTGTGA | 786
GTGAGACAAGACCACAGGCCACATTGCCTCTAAGTA | 908
GACGCAGCATGAGGTGGAGGTGTAGAATGTGGTGCT | 760
AAAGTAGGTCCAGTCCGCGGGTGCGGTCGGGCATGC | 777 ± 13
CTGCGTTGCCTCTGAGTTTTGCATGTTGAGGTTGGA | 811
TGGGACTCTCAGCCGCAGAAGGCAGGCAATAGTGGC | 773
CCACCATCTTTCAGGCTCCCTCGCGACCACCACGAC | 1280
ACCTTGCTGGCCCTGGGAGCTGGTTTGAGGTTGCAG | 702
TGGCGTTGGCGGTCTTGGCATGGGGCTGCCTCTGGG | 684
TACCGCTGCTCCCTGCCTGCGCGGTGAGCCTGTGCC | 768
TGAACTCCGCCCACCGCGATCCGGAGGCCTAGCGCC | 885
CAACCGAAGTAACCCGCAATGCGGAGGGGCGAGGGG | 885

Sequence | RUNX1 binding intensity
GCGCTCCCCGGCGTGCCCCGCGCTGCGGCCTGAAGG | 806
AAGTTCTTTCGGGTCTGCAGTCTGTGGTGTGTTTGC | 787
TAAACTACGTCTCCCAGAAGGCTGTGGGATTGCGTC | 706
CTTGTTCTATCTCCTGTTTGTGGTGAGTGACTGTCT | 1370
GGCTTTACGTTCAAGGATCTTTTTGCGGTCTTTGTC | 1310
GACTGCGCCGGGCGCGCCAGCCCTGCGGGATGACGT | 781
GGGAGGTCACCTCCTGCCCGCGGTCTCAGAAAAGCT | 793
GGGGAGGACGCGGAGGAGGAGCTGTGGGAAGGGGGA | 847
GCGCACCCGGGTCACGCTAACGCCGCGGTCTCCTCC | 689
CTCTCAATTCCCGTGTGAGAAAAACCACAGAAAAGC | 2620
AGGAGAACTGCCGCCCTTACTATATTACCGCCGGTA | 792
AGCACTGCGGCCAGGACTACAAATCCCAGCATGCAA | 781
TTTCTCTTTCTGATTCCACCCTGACCACAGCCAGCT | 3020
GAAAGACAGGGTGTGGGATAGATCTCAACCACCTTT | 698
TCATGTCCTCTGGTGTTATTGTGTTGTGGTTTTAAG | 1570
GGTTTCACTTGCTGCGTTGGGCCTTGTGGCCTCCTT | 834
AGCTTGCCGTAAGCTGGTTGTTCGCTGCGGCGACCA | 723
GAAGCGGCAGTCGCTGAGGGGTGGTGAAGCGGTTGG | 690
ACGGACAGAATTGCCTCCCCCGTCACCACAGCGACC | 915
AGCTTTTCGTCGCTCCGGCCCGCCTCGCCGCAAGGC | 915
AGGGACTTTCGGTGACCAGAGCACTAGCGCCGCAAA | 857
